Measured values reported in PubChem BioAssay AID1240 (Sanford-Burnham Center for Chemical Genomics, 2008).
In all, about 50,000 compounds went through this assay and about 800 (1.6%) showed an effect of 50% or more. Some of the results follow.

These compounds were tested against Bcl-2-like protein 10 (Homo sapiens) (UniProt Q9HD36) (assay: Phenotype converters, Bcl-B/TR3 peptide binding displacement, primary biochemical FP (AID 1240;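 also: 0% = Bcl-B with tracer peptide and DMSO and 100% = tracer peptide lacking Bcl-B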)). Details: GST-Bcl-B / FITC-TR3 peptide fluorescence polarization; stronger effect = higher value; compound at 3.75 mg/L.
Sequence of UniProt Q9HD36 (Q9HD36 whole entry, looked up): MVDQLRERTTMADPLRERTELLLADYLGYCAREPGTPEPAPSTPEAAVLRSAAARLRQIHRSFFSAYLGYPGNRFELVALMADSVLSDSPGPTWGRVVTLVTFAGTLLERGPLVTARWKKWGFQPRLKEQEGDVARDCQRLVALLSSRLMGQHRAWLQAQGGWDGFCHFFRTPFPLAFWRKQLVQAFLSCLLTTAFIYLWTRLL

SMILES	displacement
Cc1ccc(-n2nc(C)c(-c3cccc([N+](=O)[O-])c3)c2C)cc1C	13.6%
COc1ccc(C=C2C(=O)N(C)C(=O)N(C)C2=O)cc1O	-7.9%
CN(C)c1ccc(/C=C/C=N/N=c2\sc3ccccc3n2C)cc1	-7.1%
Cc1oc2ccc(NS(=O)(=O)c3ccccc3)cc2c1C(=O)OC(C)C	7.6%
CCN(CC)c1ccc(/C=c2\sc3nc4ccccc4n3c2=O)c(OC)c1	37.7%
[O-]/[N+](=C\c1ccc(F)cc1)c1ccccc1	14.4%
Cc1ccc(NC(=O)/C(=C\c2ccc(C)o2)NC(=O)c2ccccc2I)cc1	-2.1%
C=CCC1S/C(=N\N=C\c2ccc(Cl)cc2)NC1=O (centres undefined)	-3.2%
O=C(COc1ccccc1)Nc1ccc(-c2nc3ccccc3s2)c(O)c1	-2.9%
CCOc1ccc(C(NC(=O)c2ccc(OC)cc2)c2ccc(OC)cc2)cc1 (centres undefined)	-2.3%
COc1ccc(N2C(=O)NC(=O)/C(=C/c3ccccc3O)C2=O)cc1	-2.5%
O=C1C(=O)N(c2cccc(Cl)c2)C(c2ccc([N+](=O)[O-])cc2)/C1=C(\O)c1ccccc1 (centres undefined)	13.3%
Cc1sc(NC(=O)COc2ccccc2)c(C#N)c1C	16.7%
CCNC(=S)NC(C(=O)OC)C12CC3CC(CC(C3)C1)C2 (centres undefined)	-12.4%
CC1(C)CC(NC(=O)CNC2CCCCC2)CC(C)(C)N1	4.2%
O=C(CC(c1ccccc1)c1ccccc1)Nc1ncccc1Cl	-12.3%
O=C(NCc1ccco1)C1CC2CCC1C2 (centres undefined)	5.8%
NNC(=O)c1cc(-c2ccc3c4c(cccc24)CC3)n[nH]1	5.3%
C=CCc1ccccc1OCCOc1ccc(/C=N/n2cnnc2)cc1OC	11.4%
O=C(N/N=C/c1cccs1)c1sc2cc(Cl)ccc2c1Cl	7.2%
COc1ccc(S(=O)(=O)N(CC(=O)Nc2ccc(Br)cc2)c2ccc(C)cc2)cc1OC	8.5%
Cc1cc(NC(=O)CCN2C(=O)/C(=C/c3ccccc3)SC2=S)no1	5.3%
O=C(NN1CCOCC1)c1cccc(F)c1	8.1%

SMILES	displacement
Cc1ccc(Br)cc1S(=O)(=O)NCc1ccco1	13.2%
CC(C)OCC(O)CNc1ccccc1 (centres undefined)	9%
Cc1ccc(SCCNS(=O)(=O)c2ccc(C)c([N+](=O)[O-])c2)cc1	-4.4%
COc1ccccc1/C=c1/sc2nc(-c3ccc(Cl)cc3Cl)nn2c1=O	7.3%
COc1ccc(OC)c(NC(=O)C2C3C4CCC(C4)C23)c1 (centres undefined)	-45.1%
COc1ccc(CCC(=O)NCCc2ccc(OC)c(OC)c2)cc1	-2.2%
O=C(NN1C(=O)/C(=C/c2ccc(O)cc2)SC1=S)c1ccccc1Br	-72.2%
O=C1OC(OCc2ccccc2)(c2ccccc2)c2ccccc21 (centres undefined)	6.4%
O=c1c2ccccc2nc(-c2ccccc2)n1/N=C/c1cccs1	6.3%
O=C(COc1ccc(Cl)cc1Cl)Nc1ccc(O)c(-c2nc3ccccc3s2)c1	14.9%
Cc1ccc(NC(=O)c2ccn(C(=O)c3cccc(I)c3)n2)c(C)c1	-1.6%
CCOc1ccc(-c2nn(-c3ccccc3)cc2/C=C2\SC(=S)N(CCOC)C2=O)cc1	26.7%
CC(/C=C/c1ccc2c(c1)OCO2)=N\NC(=O)c1cccc([N+](=O)[O-])c1	1.2%
O=S(=O)(Oc1ccccc1)c1ccc2c(c1)Cc1cc(S(=O)(=O)Oc3ccccc3)ccc1-2	7.9%
COC(=O)c1c(N)sc(C)c1-c1ccc(OC)cc1	5%
COc1ccc(C2C(C(C)=O)C(=O)CC(C)(O)C2C(C)=O)c(OC)c1 (centres undefined)	10.5%
O=C1CSC(=O)N1c1ccc([N+](=O)[O-])cc1	1.2%
C=CCc1c(C)nc2cc(-c3cccc(F)c3)[nH]n2c1=O	10.7%
COC(=O)c1ccccc1NC(=O)c1ccccc1[N+](=O)[O-]	14.8%
COc1ccccc1NC1=C(Cl)C(=O)N(c2ccc(C)cc2)C1=O	-3.9%
COc1ccc(OC(C)C(=O)Nc2ccccc2F)cc1 (centres undefined)	13.6%
CCN(CC)c1ccc(NC(=O)c2cccc(OC)c2)cc1	11.2%
CCOC(=O)c1ccc(N2NC(=O)/C(=C/c3ccc(C=O)cc3)C2=O)cc1	-8.8%

SMILES	displacement
CC(O)C(=O)N/N=C/c1ccc(F)cc1 (centres undefined)	14.4%
Cc1cc(C)n(C(=O)CNC(=O)c2ccco2)n1	16.7%
CCOC(=O)c1c(NC(=O)c2ccc(C)cc2)sc2c1CCC2	4.5%
CCOc1cc(C2C(C(=O)OCCOC)=C(C)NC3=C2C(=O)CC(C)(C)C3)ccc1OC(C)=O (centres undefined)	-6%
O=C(COc1ccccc1[N+](=O)[O-])Nc1cc(-c2nc3ccccc3o2)ccc1Cl	91.6%
O=C(Nc1cccc(C(=O)Nc2cccc(Cl)c2)c1)c1ccc([N+](=O)[O-])cc1	-4.6%
CCN(CC)CCn1c2ccccc2n2cc(-c3ccc(C)cc3)nc12	-16.1%
COc1ccc(OC)c(/C=C2/C(=O)N(c3ccc(C)cc3)N=C2C)c1	-5.7%
CCSCCOC(=O)C1=C(C)NC2=C(C(=O)CCC2)C1c1ccc(OC)c(OCc2ccccc2)c1 (centres undefined)	0%
COC(=O)c1ccccc1NCn1nc(-c2ccc(Cl)cc2Cl)oc1=S	-14.9%
CNc1c([N+](=O)[O-])cnc2c1c(=N)nc1ccccn12	-9.6%
Cc1cc(C)c(OCC(=O)Nc2cccc3ccccc23)c(C)c1	15.9%
COC(=O)c1ccc(C2Nc3ccccc3-c3nnc(SC)nc3O2)cc1 (centres undefined)	18.4%
COCCN1C(=O)/C(=C\c2ccc(F)cc2)C(C(=O)OC)=C1C	7.3%
CC(C)(C)NCCOc1cccc(Cl)c1Cl	-15%
COc1ccc(C2NC(=S)NC(C)=C2C(=O)Nc2ccc(C)cc2)cc1OC (centres undefined)	4.2%
CC1(C)CC(=O)C2=C(C1)Nc1ccccc1N(C(=O)Cc1ccccc1)C2c1cccc(Cl)c1 (centres undefined)	-18.9%
COC(=O)Cn1c2c(c3cc(C)ccc31)CCCC2=NCc1ccccc1	-2.1%
O=C(/C=C/c1ccco1)Nc1ccc(NC(=O)c2ccc(Cl)cc2Cl)cc1	10%
O=C1CN(S(=O)(=O)c2ccc3c(c2)C(=O)c2ccccc2-3)CC(=O)N1	-3.3%
CCOC(=O)CSc1nc2sc3c(c2c(=O)n1-c1ccc(OC)cc1)CCc1ccccc1-3	-6.4%
O=C1Nc2ccc(Br)cc2/C1=C/c1ccc2ccccc2n1	-1.1%
Cc1ccc(-c2nc(N/N=C/c3ccc([N+](=O)[O-])cc3)c3ccccc3n2)cc1	3.5%
